The nature of the data set: SOD1-G93A ALS mice, body weight. To be noted: all doses, compared to the solvent group.

In the case of “(Z)-3-(1-hydroxybutenyl)benzofuran-2-one tromethamine salt [Example 10]”, the “effect on the body weight of the mice” value is listed as “no significant effect”.

The record behind these values is patent publication EP4660190A1, “PHARMACEUTICALLY ACCEPTABLE SALT OF COMPOUND AND PREPARATION METHOD THEREFOR” (Jiangsu Chia Tai Fenghai Pharmaceutical Co., Ltd., priority 2023, dated 2024).
